Here are results for 109 molecules from PubChem BioAssay AID1240 (Sanford-Burnham Center for Chemical Genomics, 2008).

The whole screen tested about 50,000 compounds, of which about 800 (1.6%) showed an effect of 50% or more. Some of the results follow.

In this test the target is Bcl-2-like protein 10 (Homo sapiens) (UniProt Q9HD36). As to the kind of experiment: Phenotype converters, Bcl-B/TR3 peptide binding displacement, primary biochemical FP (AID 1240).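 Also: 0% = Bcl-B with tracer peptide and DMSO and 100% = tracer peptide lacking Bcl-B.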 As to conditions: GST-Bcl-B / FITC-TR3 peptide fluorescence polarization; stronger effect = higher value; compound at 3.75 mg/L.
UniProt Q9HD36, sequence (Q9HD36 whole entry, looked up): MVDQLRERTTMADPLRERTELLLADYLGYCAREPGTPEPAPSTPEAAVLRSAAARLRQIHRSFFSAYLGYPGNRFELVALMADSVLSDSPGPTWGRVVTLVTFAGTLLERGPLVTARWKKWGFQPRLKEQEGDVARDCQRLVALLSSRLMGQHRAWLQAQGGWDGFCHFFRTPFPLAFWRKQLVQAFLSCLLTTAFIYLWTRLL
Regarding `O=C(O)C(=O)/C(N=Nc1ccc(Cl)cc1)=C(\O)c1ccc(Cl)cc1`, the displacement was 6.8%. For `COc1ccc(/C=N/Nc2cc(-n3nc(C)cc3C)nc(C)n2)cc1` the value was -10.7%.

Consider `CCOC(=O)C(=CNc1ccc(C(=O)OC)cc1)C(=O)OCC`, for which the displacement was -2.5%. Next, `O=C(Nc1ncc(Cc2cccc(C(F)(F)F)c2)s1)c1ccccc1Br`: -6.1%. For `CC1=C(C(=O)OC(C)C)C(c2ccsc2)NC(=O)N1C` (centres undefined) the value was -11.5%; for `O=C(NCCCN1CCOCC1)c1ccc([N+](=O)[O-])cc1`, -1.2%.

Regarding `Cc1cc(Cl)ccc1NC(=O)CCc1ccccc1`, the displacement was -7.3%. For the molecule `CC1=C(C(=O)Nc2ccc(Cl)cc2)C(c2ccccc2F)NC(=O)N1` (centres undefined), the displacement was -13.9%.

For the molecule `Cc1c([N+](=O)[O-])cc2[nH]c(=O)c(=O)[nH]c2c1[N+](=O)[O-]`, the displacement was determined as 0.4%.

Turning to `N/C(=N\OC(=O)c1ccc(I)cc1)c1ccncc1`, the displacement was 4.3%. Turning to `Cn1c(CNC2CCCCC2)nc2ccccc21`, the displacement is -6.3%.

For `Cc1cc(C)nc(SCc2ccccc2C#N)n1`, the displacement was -3%. Next, `O=c1cccc(-c2cccc([N+](=O)[O-])c2)o1`: 20.9%; `CCOc1ccc(NC(=O)CC2S/C(=N\N=C3/CCCc4ccccc43)NC2=O)cc1` (centres undefined): 11.6%; `Cc1cc(Cl)ccc1N(CC(=O)NCc1ccco1)S(=O)(=O)c1ccccc1`: 6.8%. For `O=C(/C=C/c1ccccc1)NC(=S)Nc1ccc([N+](=O)[O-])cc1` the value was 14.5%; for `O=C1C(=O)N(Cc2ccccc2)C(c2ccccc2F)/C1=C(/O)c1ccccc1` (centres undefined), 14.4%.

Turning to `COc1ccc(C(NC(C)=O)c2c(OC(C)=O)ccc3ccccc23)cc1` (centres undefined), the displacement is -12%.

In the case of `O=C(Nc1ccc(O)c(-c2nc3cc(Cl)ccc3o2)c1)c1cccnc1`, the displacement is -17.8%. For `Cc1ccc(CN2CCN(N=Cc3ccc(C)s3)CC2)c(C)c1` the value was -15.2%. For `O=C(COc1ccccc1)N1CCN(C(=O)c2cccc(F)c2)CC1` the value was 10.9%. For `CCc1ccc(NC(=O)c2ccc(Cl)cc2)cc1` the value was 11.9%. Turning to `Cc1ccc(OCC(=O)N/N=C\c2ccccc2C)cc1`, the displacement was 6.3%.

On to `CCCN1C(=O)/C(=C\c2nc3ccccc3c(=O)n2C)c2cc(Br)ccc21`, for which the displacement was 1.7%. On to `O=C(Cc1ccc(F)cc1)Nc1ccc(Cl)cc1Cl`, for which the displacement was determined as 13.2%.

For `CCOC(=O)c1ccc(NC(=O)CN(c2ccc(C)cc2)S(=O)(=O)c2ccc(SC)cc2)cc1`, the displacement was -7.8%.

With `C=CCNC(=O)c1cc(OC)c(OC)c(OC)c1`, the displacement was -8.1%. Next, `N/C(=N\c1nc2ccccc2o1)NC(=O)c1ccc(F)cc1`: 1.4%; `COc1ccc(NC(=O)C(=O)NCCN2CCN(C(=O)c3ccc(C)cc3)CC2)cc1`: 10%; `CCN1C(=O)/C(=C\c2cc(Br)c(OCc3ccc(F)cc3)c(OC)c2)SC1=S`: 1.7%. For `Cc1nc(=S)c2cnn(-c3ccccc3)c2[nH]1` the value was -6.5%. Next, `CC(C)N(C(=O)c1ccc(C(=O)NCc2ccc(S(N)(=O)=O)cc2)cc1)C(C)C`: -2.3%. For `O=[N+]([O-])c1cccc(Cl)c1N1CCOCC1`, the displacement was found to be 3.9%. For `O=C1CC(c2ccccc2)CC2=C1C(c1cc([N+](=O)[O-])ccc1Cl)Nc1ccccc1N2` (centres undefined) the value was 9.5%.

Regarding `O=C(CSc1nnnn1-c1ccccc1)NC1CCCC1`, the displacement was -7.6%. For `O=C(NCc1ccc2c(c1)OCO2)c1cccc(F)c1` the value was -14.6%; for `COC(=O)c1ccccc1-c1ccc(/C=c2\sc3nc4ccccc4n3c2=O)o1`, 24.5%. Next, `COc1ccc(NC(=O)c2ccc(CN3CCOCC3)cc2)cc1OC`: 5.9%. Next, `Cc1nnc(Nc2cccc(Nc3nnc(C)c4ccccc34)c2)c2ccccc12`: 4.6%. As for `Cc1ccccc1N1C(=O)C(O)=C(C(=O)/C=C/c2ccccc2)C1c1ccc(Br)cc1` (centres undefined), the displacement was found to be 7.6%. Next, `O=C(N/N=C/c1cccc(O)c1)C(=O)N1CCCCCC1`: -6.1%; `O=P1(C(Nc2ccc(O)cc2)c2ccc(Br)cc2)OCCCO1` (centres undefined): 11.9%; `COc1ccc(NC(=O)c2cccc(Oc3ccccc3)c2)cc1OC`: 7%. For `Cc1nc2ccccc2c2c1C(=O)N(c1cccc(O)c1)C2=O` the value was -9.5%; for `O=S(=O)(Nc1cccnc1)c1cc(Cl)c(Cl)cc1Cl`, -17.1%; for `O=C1CC(Sc2ccc(Br)cc2)C(=O)N1c1ccccc1` (centres undefined), -3.5%. Turning to `CC(=O)c1ccc(NC(=O)CN(c2ccccc2)S(=O)(=O)c2ccccc2[N+](=O)[O-])cc1`, the displacement came to 11.6%. For `CCc1ccc(-n2nc(C)c3c(C)cc(=O)oc32)cc1` the value was 6.9%; for `CCCc1c(C)c2ccccc2[nH]c1=O`, 11.2%; for `CCOC(=O)c1c(C)oc2ccc(OCc3ccccc3F)cc12`, 12.9%.

Take `COc1ccc(NC(=O)CSc2nc(-c3ccccc3)c(-c3ccccc3)o2)cc1`: the displacement is 10.7%. As for `CCOC(=O)C1=C(C)N=c2s/c(=C\c3ccc(C(C)=O)c(OC)c3)c(=O)n2C1c1ccccc1` (centres undefined), the displacement was 4.5%. Regarding `Cc1ccc(C(=O)N/C(=C/c2cccnc2)C(=O)NN)cc1`, the displacement is -8.7%. For `CCC1=NN2C(=N)/C(=C/c3ccc(-c4ccc([N+](=O)[O-])cc4C)o3)C(=O)N=C2S1` the value was 14%. `O=C(OC/C=C/c1ccccc1)C(C(F)(F)F)C(F)(F)F`: the displacement was 3.9%. Next, `CCOC(=O)C1=C(N)OC2=C(C(=O)CC(C)(C)C2)C1c1ccc(Cl)cc1Cl` (centres undefined): 5.6%. For `O=C1SC(Nc2ccc(Br)cc2)C(=O)N1c1ccccc1` (centres undefined) the value was -1.7%; for `N#Cc1c(-c2ccco2)c2c([nH]c1=S)CCCC2`, -5%. Turning to `OC(COc1cccc(OCC(O)CN2CCOCC2)c1)CN1CCOCC1` (centres undefined), the displacement is -2.2%.

Take `O=C(Nc1ccc(Cl)c(Cl)c1)C1CC(=O)N(c2cccc([N+](=O)[O-])c2)C1` (centres undefined): the displacement worked out at 6.6%.

As to `O=C(O)CCCN1C(=O)C(=O)/C(=C(\O)c2ccc(Cl)cc2)C1c1ccccc1` (centres undefined), the displacement is 0.5%.

`COc1ccc(/C(C)=N\N=C2/NC(=O)C(Cc3ccc(C)cc3)S2)cc1` (centres undefined): the displacement came out at 7.5%. For `COc1cc(CN2CCN(C(=O)c3ccccc3F)CC2)cc(OC)c1O` the value was -9.6%; for `O=C1N=c2ccc(Br)cc2=C1c1sc(=O)n(-c2ccc(O)cc2)c1O`, 4.6%; for `CS(=O)(=O)N1CCN(c2ccc([N+](=O)[O-])c3cccnc23)CC1`, -2.6%. For `COC(=O)NNC(=O)c1ccc(OC)c(OC)c1` the value was -6.7%. Regarding `Cc1ccc(CSc2nc(N)c3c4c(sc3n2)CCC4)c(C)c1`, the displacement was -6.8%. For `Cc1ccc(C(=O)N/C(=C\c2cccc(Br)c2)C(=O)N2CCCCC2)cc1` the value was 14.4%; for `O=C(Cc1ccccc1)Nc1ccc(Br)cc1C(=O)O`, 0%. Next, `CN1CCN(C(=O)c2ccc(-c3ccccc3)cc2)CC1`: -6.3%; `O=C(O)c1c[nH]c2c(ccc3ccccc32)c1=O`: -0.7%. Next, `O=C(CCNc1ccc2c(c1)oc1ccccc12)c1ccc(Br)cc1`: -11.5%; `O=C(Nc1ccc(Br)cn1)c1cccc(Cl)c1Cl`: -8.4%; `CCOc1cc(OCC)cc(C(=O)Nc2ccc3oc(-c4ccc(OC)cc4)nc3c2)c1`: 4.2%.

`CCN(CC)c1ccc(N/C(N)=N/c2nc(C(F)(F)F)cc(=O)[nH]2)cc1`: the displacement is 8.3%. For `COc1ccc(C(=O)N2CCN(Cc3cc(OC)c(OC)cc3OC)CC2)cc1` the value was 4%; for `O=C1CN(S(=O)(=O)c2ccc3ccccc3c2)CC(=O)N1`, -1.2%. Regarding `COc1ccc(S(=O)(=O)N2CCN(Cc3ccccc3C)CC2)cc1`, the displacement is -9.8%. For `O=C(CC1S/C(=N\N=C\c2cccc(O)c2)NC1=O)Nc1ccc(Cl)c(Cl)c1` (centres undefined) the value was 13.2%.

For the molecule `CC(Oc1cccc(Cl)c1)C(=O)NCc1ccncc1` (centres undefined), the displacement is -7.2%. Next, `CC1=C(C(=O)OC2CCCC2)C(c2ccc(Br)cc2)NC(=O)N1` (centres undefined): 7%; `COc1ccc(C2CC(c3cccs3)=NN2c2ccc(C=O)cc2)cc1` (centres undefined): 17.4%.

For `C/C(=N\NS(=O)(=O)c1ccc([N+](=O)[O-])cc1)c1ccc(NC(=O)c2ccco2)cc1`, the displacement amounted to 0%. For `CCc1cc(C)cc(OCCn2cc(/C=C3/SC(=S)N(C)C3=O)c3ccccc32)c1` the value was 123%; for `COc1ccc(/C=C2/SC(=Nc3ccc(O)cc3)NC2=O)cc1`, -15.9%. For `CC(C)c1ccc(N2C(=O)NC(=O)/C(=C/c3cccc([N+](=O)[O-])c3)C2=O)cc1`, the displacement came out at 13.3%. Next, `Clc1ccccc1CN1CCN(Cc2ccncc2)CC1`: -26.7%; `CC1=C(C(=O)OC2CCCCC2)C(c2ccc(Br)cc2)NC(=O)N1` (centres undefined): 17.5%; `COc1cc(NC(=O)COc2ccc(Cl)cc2Br)cc(OC)c1`: -12.1%. Turning to `CCOc1ccccc1NC(=O)c1c(NC(=O)Cc2ccc(OC)cc2)sc2c1CCCC2`, the displacement is 1.8%. For `Oc1ccc(Nc2nc3nonc3nc2Nc2ccccc2)cc1` the value was -9.7%; for `COc1ccc(C=C2C(=O)c3ccccc3C2=O)c(OC)c1`, 181%. For `O=C1C(=O)N(c2ccc(Cl)cc2)C(=O)N1Cc1ccccc1` the value was 16.9%; for `COC(=O)CN(c1ccccc1)S(=O)(=O)c1ccccc1[N+](=O)[O-]`, 9.9%; for `O=C(N/N=C/c1cccc(Cl)c1Cl)c1ccc(Cl)c(Cl)c1`, 5.8%. Consider `COc1ccccc1N(CC(O)CN1CCCCC1)S(=O)(=O)c1ccccc1` (centres undefined), for which the displacement is -1.1%. Take `CCOC(=O)c1sc(NC(=O)c2ccc(C)c([N+](=O)[O-])c2)c(C(=O)OCC)c1C`: the displacement was determined as 13.5%. Next, `CCOC(=O)CC(C(=O)OCC)P(=O)(c1ccccc1)c1ccccc1` (centres undefined): 2.7%; `CC(=O)Nc1ccc(N=Cc2ccc([N+](=O)[O-])s2)cc1`: -2.9%; `COc1ccccc1C(=O)N1CCN(C(=O)c2cccs2)CC1`: -8.4%.

As to `CCOC(=O)c1c(C)n(-c2ccccc2)c2ccc(O)c(CN(C)C)c12`, the displacement amounted to 17.3%. On to `COC(=O)C(NC(=O)c1cccc(Cl)c1)C12CC3CC(CC(C3)C1)C2` (centres undefined), for which the displacement is -0.3%. For `CC(C)OC(=O)C1C(=O)CC(C)(O)C(C(=O)OC(C)C)C1c1ccc(Cl)cc1` (centres undefined) the value was 4.9%; for `COc1cccc(C(=O)/C=C/c2ccc3c(c2)OCO3)c1`, -5.8%; for `COc1ccc(C2(CNC(=O)C3(c4ccccc4)CCCC3)CCCC2)cc1OC`, -15.1%.

As for `CCCc1nc2c(nnn2Cc2ccccc2)c(=O)[nH]1`, the displacement came out at 10.1%. For `O=C(Nc1ccc(NS(=O)(=O)c2ccccc2)cc1)c1ccco1` the value was 0.4%; for `O=C(NCCO)c1ccc(Oc2ccc(C(=O)NCCO)cc2)cc1`, 1.9%.

Consider `Cc1ccc(-c2cc(CC(C)C)nc(N)c2C#N)cc1`, for which the displacement was -6.3%.
